{
  "source": "the supplement of paper PMC12889115",
  "note": "Some of the results follow. Repeats are few or missing, and single values can be far off.",
  "data": [
    {"system": "Salmonella enterica serovar Typhimurium SL1344", "assay": "bacterial growth OD600 after 18 h in MHB with 0.5 µg/mL polymyxin B; higher = more bacterial growth (less inhibition)", "details": "25 µM; polymyxin B 0.5 µg/mL; system: broth", "description": "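Secondary screen of the 553 primary hits at 25 µM. (i) S. Typhimurium SL1344 grown in Mueller-Hinton broth with 0.5 µg/mL polymyxin B, OD600 read after 18 h. (ii) SAFIRE assay: RAW 264.7 macrophages infected with S. Typhimurium sifB::gfp (MOI 30); compound added 2 h post-infection; cells fixed at 18 h; GFP-positive pixel fraction per macrophage imaged by confocal microscopy and expressed as % of DMSO control.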", "values": [
      {"molecule": "O=C(CCN1Cc2ccccc2OC(c2ccccc2)C1)NCc1cc(-c2ccccc2)[nH]n1", "note": "(centres undefined);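 further: polymyxin B level opens the outer membrane while sparing the inner membrane, with novobiocin wells as reference growth inhibitor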", "bacterial growth OD600": -0.004},
      {"molecule": "CN1C(=O)CC(CC(=O)N(CC2CC2)CC2CCCO2)(c2ccc(-c3ccccc3)cc2)C1=O", "note": "(centres undefined)", "bacterial growth OD600": -0.005},
      {"molecule": "COC(=O)c1ccc(-c2nc(CN(C)C3CCCc4ccccc43)c(C)o2)cc1", "note": "(centres undefined)", "bacterial growth OD600": 0.003},
      {"molecule": "CCOC(=O)C1(Cc2ccccc2C)CCCN(C(=O)c2cc(C3CC3)n[nH]2)C1", "note": "(centres undefined)", "bacterial growth OD600": 0.003},
      {"molecule": "CCC(Nc1nc2nonc2nc1N1CCOCC1)c1cccs1", "note": "(centres undefined)", "bacterial growth OD600": 0},
      {"molecule": "CCOC(=O)C1CCCCN1C(=O)CC1(c2ccc(-c3ccccc3)cc2)CC(=O)N(C)C1=O", "note": "(centres undefined)", "bacterial growth OD600": -0.02},
      {"molecule": "CN1CCCCCC1C(=O)N(Cc1ccncc1)Cc1cccc(OCCc2ccc(F)cc2)c1", "note": "(centres undefined)", "bacterial growth OD600": 0.003},
      {"molecule": "CC(C)(O)C#Cc1ccc(C(=O)N2Cc3ccccc3OC(c3ccccc3)C2)cc1", "note": "(centres undefined)", "bacterial growth OD600": 0.001},
      {"molecule": "CC(C)Cc1ccc(C(=O)N2CCCC(CNC(=O)c3ccc(F)cc3)C2)cc1", "note": "(centres undefined)", "bacterial growth OD600": 0.003},
      {"molecule": "CCOC(=O)C1(CCCc2ccccc2)CCN(C(=O)Cc2cccnc2)CC1", "bacterial growth OD600": 0.003},
      {"molecule": "Cc1ccc(OCc2cc(C(=O)N(C)C3CCCCC3)no2)cc1C", "bacterial growth OD600": 0.007},
      {"molecule": "COC1CCN(C(=O)C2(N(C)CCc3ccccc3)Cc3ccccc3C2)CC1", "bacterial growth OD600": 0.006},
      {"molecule": "CC(=O)Nc1ccc(C(=O)N2CCCC(Nc3cccc(F)c3)C2)cc1", "note": "(centres undefined)", "bacterial growth OD600": 0.576},
      {"molecule": "O=C(CC1(c2ccccc2F)CC(=O)N(C2CCCC2)C1=O)N(CC1CCC1)CC1CCCO1", "note": "(centres undefined)", "bacterial growth OD600": -0.003}
    ]}
  ]
}
